# PMC4336329 (PLoS ONE, 2015)
# Screen size: about 310,000 compounds; about 14,000 (4.5%) showed an effect of 50% or more. Effects have a minus sign here. Some of the results follow.
# Molecular target: human ether-à-go-go-related gene (hERG) potassium channel (human, UniProt Q12809)
# Assay: primary screen, population patch clamp on CHO cells stably expressing hERG
# 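Note: peak tail current of the secondary pulse compared with the same well before compound.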
# human ether-à-go-go-related gene (hERG) potassium channel, sequence (Q12809 whole entry, looked up): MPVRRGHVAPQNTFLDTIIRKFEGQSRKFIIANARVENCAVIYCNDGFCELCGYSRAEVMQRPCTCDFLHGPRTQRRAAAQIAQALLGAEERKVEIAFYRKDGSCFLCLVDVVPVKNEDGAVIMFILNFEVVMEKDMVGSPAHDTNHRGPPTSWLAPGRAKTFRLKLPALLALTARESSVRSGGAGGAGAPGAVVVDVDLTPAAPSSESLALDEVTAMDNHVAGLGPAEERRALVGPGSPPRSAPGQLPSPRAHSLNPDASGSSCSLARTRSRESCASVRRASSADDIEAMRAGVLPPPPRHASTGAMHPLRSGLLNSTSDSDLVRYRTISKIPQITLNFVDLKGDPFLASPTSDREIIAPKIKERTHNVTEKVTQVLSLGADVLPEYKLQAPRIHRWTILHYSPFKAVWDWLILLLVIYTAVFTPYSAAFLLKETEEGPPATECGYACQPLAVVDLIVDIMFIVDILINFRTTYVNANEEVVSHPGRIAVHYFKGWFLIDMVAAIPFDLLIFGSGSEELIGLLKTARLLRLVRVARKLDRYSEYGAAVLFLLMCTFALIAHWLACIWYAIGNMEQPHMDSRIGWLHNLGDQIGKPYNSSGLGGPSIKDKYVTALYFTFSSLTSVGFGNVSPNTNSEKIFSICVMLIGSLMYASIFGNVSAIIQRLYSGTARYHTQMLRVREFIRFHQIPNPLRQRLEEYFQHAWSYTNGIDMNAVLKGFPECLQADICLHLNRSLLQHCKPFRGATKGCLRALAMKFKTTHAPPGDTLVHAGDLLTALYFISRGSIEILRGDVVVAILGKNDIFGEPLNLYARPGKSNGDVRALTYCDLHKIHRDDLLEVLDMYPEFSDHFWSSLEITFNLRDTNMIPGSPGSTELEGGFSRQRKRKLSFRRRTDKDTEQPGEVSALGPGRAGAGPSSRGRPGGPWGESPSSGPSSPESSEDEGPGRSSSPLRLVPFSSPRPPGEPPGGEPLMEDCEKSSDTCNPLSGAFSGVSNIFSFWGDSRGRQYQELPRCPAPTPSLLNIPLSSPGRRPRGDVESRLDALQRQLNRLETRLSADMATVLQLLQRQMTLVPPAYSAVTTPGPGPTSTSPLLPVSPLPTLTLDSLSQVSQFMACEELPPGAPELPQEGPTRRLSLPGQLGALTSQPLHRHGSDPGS
row,SMILES,"hERG current change (%, negative = inhibition) at 10uM [%]"
1,O=C(O)CCC(=O)NNC(=O)c1cccs1,21.8
2,CCOc1ccc(N(C)C(=O)CCc2nnc3ccc(N4CCCC4)nn23)cc1,7.97
3,Clc1ccc(Nc2ncn[nH]2)cc1,11.6
4,CC12CCCCC1(O)[N+](=O)C1=C(CCCC1)N2[O-] (stereo not shown),17.1
5,Cc1ccc(N(Cc2cc3ccccc3[nH]c2=O)C(=O)c2cccs2)cc1,-2.92
6,Cc1n[nH]c(C)c1C(=O)CC1(O)C(=O)N(CCc2ccccc2)c2ccc(Cl)cc21 (stereo not shown),-10.2
7,N#Cc1ccccc1OCC(=O)OCC(=O)NCc1ccc2c(c1)OCO2,6.83
8,Cc1ccc(/C(O)=C/c2nc3cc(C)ccc3oc2=O)cc1,6.31
9,O=C(NCc1ccccc1)c1cccc(OCC(=O)N2CCN(C(=O)c3ccco3)CC2)c1,-41.1
10,CCOC(=O)c1ccc(NC(=O)CSc2nnc(COc3ccccc3OC)n2C)cc1,-7.45
11,Clc1nccc(NCc2ccccc2)n1,15.3
12,COc1ccc(N2CCN(C(=O)CN(Cc3ccc(Cl)cc3)S(C)(=O)=O)CC2)cc1,-20.1
13,C=C(C)C1Cc2cc3ccc(=O)oc3cc2O1 (stereo not shown),-9.43
14,Cl.OCCNc1nc2ccccc2n1CCN1CCCCC1,-30.4
15,COCc1cc(C2SCC(=O)Nc3c2c(=O)[nH]n3C(C)C)ccc1OC (stereo not shown),3.23
16,CCOC(=O)C1=C(C)N=c2s/c(=C/c3ccccc3)c(=O)n2C1c1ccc(OC)c(OC)c1 (stereo not shown),1.03
17,COCCCNC(=O)c1sc2ncn(CC(=O)Nc3ccc(C)c(Cl)c3)c(=O)c2c1C,-6.07
18,Cc1ccccc1NC(NC(=O)c1cccs1)C(Cl)(Cl)Cl (stereo not shown),11.4
19,CC1(C)Cc2c(cnn2-c2cccc(F)c2)C(NC(=O)CSc2ccccn2)C1 (stereo not shown),-20.6
20,COc1ccc(-c2[nH]n(-c3ccc([N+](=O)[O-])cc3)c(=O)c2C=NCc2ccccc2)cc1,3.2
21,CN(Cc1ccccc1)C(=O)C1CCN(S(=O)(=O)c2cc([N+](=O)[O-])ccc2Cl)CC1,-54.6
22,CCCOc1ccc(/C=N/NC(=O)CSc2ccccn2)cc1OC,-10.2

row,SMILES,"hERG current change (%, negative = inhibition) at 10uM [%]"
1,O=[N+]([O-])c1ccc(N2CCNCC2)cc1NCc1cccnc1,-8.35
2,CC(Oc1ccc2c3c(c(=O)oc2c1)CCC3)C(=O)NCCN1CCOCC1 (stereo not shown),23
3,O=C(CCS(=O)(=O)c1ccccc1)Nc1ccc(S(=O)(=O)Nc2ncccn2)cc1,19.3
4,NNC(=S)NC1CCCCCCCCCCC1,-31.2
5,O=C(Cn1c(=O)oc2cc(S(=O)(=O)N3CCc4ccccc43)ccc21)N1CCCCC1,-7.38
6,CCOC(=O)c1nnn(-c2nonc2N)c1C,7.69
7,Cc1cc(C(=O)COC(=O)C23CC4CC(CC(O)(C4)C2)C3)c(C)n1-c1c(C)n(C)n(-c2ccccc2)c1=O,6.29
8,O=C(N/N=C/c1cccc([N+](=O)[O-])c1)C(=O)N1CCCCCC1,-52.5
9,CCN(CCn1cccn1)C(=O)CCc1nnc(-c2ccc3c(c2)OCO3)o1,-5.68
10,N#CCCN(CCC#N)c1nnc(-c2ccccc2)s1,-5.98
11,COc1cccc2[nH]c(C(=O)NCCc3ccccc3)cc12,6.83
12,O=C1CC(c2cccc(Br)c2)C2=C(COC2=O)N1 (stereo not shown),23.8
13,C=CCn1c(=O)/c(=C/c2ccc(C)o2)s/c1=C(/C#N)C(=O)c1ccccc1,12.2
14,Cc1nnc(C)n1/N=C/c1cc(Br)ccc1O,9.86
15,CN(NS(=O)(=O)c1ccc(Cl)cc1)c1cnn(C)c(=O)c1Cl,13.2
16,CCOC(=O)C1=NNC2(c3ccc(C)cc3)C(=O)N(c3ccccc3)C(=O)C12 (stereo not shown),2.65
17,O=C(NCc1ccc2c(c1)OCO2)c1nn2cccnc2c1Cl,-3.65
18,Cc1ccc(C(=O)Nc2ccc(N3CCOCC3)c3nonc23)cc1[N+](=O)[O-],5.58
19,O=c1c2ccccc2nc(-c2ccccc2)n1Cc1ccco1,-30.5
20,CCOn1c(=O)c(-c2cc3ccccc3o2)[n+]([O-])c2ccccc21,4.12
21,Cc1cc(C(=O)N/N=C/c2cc(Br)cc(Br)c2OC(=O)c2cccc(F)c2)n[nH]1,25.5
22,O=C(CSc1n[nH]c(-c2ccccc2)n1)Nc1ncc(Br)cc1Br,-21.8

row,SMILES,"hERG current change (%, negative = inhibition) at 10uM [%]"
1,CCC1CCCCN1C(=O)CNCC1CCCO1.Cl (stereo not shown),2.47
2,OCc1ccccc1N=Cc1cccnc1,6.56
3,CC1OC(Nc2ccc(N=Nc3ccccc3)cc2)C(O)C(O)C1O (stereo not shown),12
4,CCN(C(=O)CSc1nnc(Cn2nnc3ccccc32)o1)c1nc(-c2ccccc2)cs1,-6.33
5,CCc1nn2c(=O)c(S(=O)(=O)Nc3ccccc3)c(C)nc2s1,-5.23
6,Clc1nnc(Cl)c2c1ncn2Cc1ccccc1,15
7,CC1=C(C(=O)OCc2ccccc2)C(c2ccc(C#N)cc2)NC(=O)N1CCCC(=O)O (stereo not shown),10.9
8,CC(=O)c1c[nH]c(C(=O)Nc2ccc(N3CCCCCC3)cc2)c1,-4.77
9,CCc1nnc(NC(=O)CSc2nnc(-c3ccncc3)n2C)s1,9.6
10,Cc1ccccc1C(=O)NC(=S)NCCN1CCOCC1,-2.77
11,COc1ccc(/C=C2\CCc3c2nc2ccccc2c3C(=O)O)cc1OC,-6.74
12,Cc1nn(CCOc2ccccc2)c(=O)n1-c1ccc(Cl)cc1,-3.66
13,Cc1ccc(N/C(=C\C(=O)c2ccccc2)C(=O)O)cc1,-11.6
14,CCc1ccc(NC(=O)CSc2nnc(CNC(=O)c3ccco3)o2)cc1,-14.5
15,COc1ccc(C2(C(=O)NCC3CCCO3)CCOCC2)cc1 (stereo not shown),5.22
16,COC(=O)C1=C(C)N(C)C(=O)NC1c1cc2c(cc1Br)OCO2 (stereo not shown),13.3
17,CCOC(=O)c1cnc(SCC(=O)Nc2nc(C)c(C)s2)nc1N,-61.9
18,O=C(Cc1ccc([N+](=O)[O-])cc1)OCc1ccc([N+](=O)[O-])cc1,19.2
19,O=C1COc2ccc(NC(=O)c3ccccc3C(=O)O)cc2N1,21.6
20,CCCNC(=O)c1ccc(N2CCC3(CC2)CC(c2ccccc2)=NO3)c(N)c1,-7.96
21,N#Cc1cccc(NC(=O)c2ccc(S(=O)(=O)N3CCOCC3)cc2)c1,-28.7
22,Cc1c(C(=O)N2CCCCC2)sc(NC(=O)C(C)C)c1C#N,3.51

row,SMILES,"hERG current change (%, negative = inhibition) at 10uM [%]"
1,Cc1nnsc1S(=O)c1ccc(Cl)cc1 (stereo not shown),6.12
2,O=C(c1ccccc1Cl)N(Cc1ccc(Cl)c(Cl)c1)N1C(=O)CCCC1=O,-6.37
3,COc1cc(CC(=O)Nc2ccc(S(=O)(=O)NC3=NCCCCC3)cc2)cc(OC)c1OC,14
4,CSCCOC(=O)COc1ccc(/C=N/NC(=O)c2nn(C)cc2Cl)cc1,-38.4
5,O=C(CSCc1ccccc1Cl)N1CCN(c2ccccn2)CC1,-19.2
6,CCOc1ccc(N2C(=O)CC(n3nc(C)cc3C)C2=O)cc1 (stereo not shown),1.62
7,C/C(=N\Nc1nncc2ccccc12)c1ccc(OCC(=O)N(C)C)cc1,8.27
8,CCOC(=O)COC(=O)c1ccc(O)cc1,4.03
9,CC1CSc2n(-c3cccc(C(F)(F)F)c3)cc(-c3ccccc3)[n+]21.[Br-] (stereo not shown),-35.7
10,COc1cccc(NC(=O)c2ccc3nc(C)sc3c2)c1,4.64
11,CCC(C)NC(=O)CCC(=O)Nc1ccc2nc(N3CCOCC3)cc(C)c2c1 (stereo not shown),2.55
12,CCc1noc(C)c1C(=O)OCC(=O)c1ccc(OC)c(OC)c1,-5.3
13,COc1cccc(NC(=S)N(CCN(C)C)C(C)c2ccncc2)c1 (stereo not shown),-34.3
14,CN(Cc1ccccc1)c1ccc(C(CC(N)=O)NC(=O)Cc2cccc3ccccc23)cc1[N+](=O)[O-] (stereo not shown),-16.6
15,Cc1sc(NC(=O)c2ccco2)c(C(c2cccnc2)N2CCC(C)CC2)c1C (stereo not shown),8.45
16,O=C(O)c1cc(-c2cc(C(=O)O)c3ccccc3n2)nc2ccccc12,25.5
17,COc1ccc(CCNC(=O)CCN2C(=O)C(C)Oc3ccc(C)cc32)cc1OC (stereo not shown),-6.21
18,O=C(COC(=O)c1ccc(S(=O)(=O)Nc2ccccc2)cc1)NCCC1=CCCCC1,5.94
19,Cc1ccc(SCc2cc(=O)[nH]c(/N=C(\N)Nc3cccc4ccccc34)n2)cc1,8.66
20,Cc1ccc(NC(=S)NCCN(C2CCCCC2)C2CCCC2)cc1C,-68.1
21,CC(C)OC(=O)CCNc1n[nH]c(=O)[nH]c1=O,4.19
22,O=C(Sc1nnnn1C1CCCCC1)c1cccs1,11.1
